# Measured values as given in the supplement of paper PMC8728848.
# This is one part of the list.
# Key:
# Test in all cases: glycan array binding signal (z-score within array); higher = stronger binding
# Settings in all cases: glycan notation: IUPAC condensed, linker removed
# [1] = target: Fuc(a1-2)Gal(b1-4)[Fuc(a1-3)]GlcNAc(b1-2)Man(a1-6)[Fuc(a1-2)Gal(b1-4)[Fuc(a1-3)]GlcNAc(b1-2)Man(a1-3)]Man(b1-4)GlcNAc(b1-4)[Fuc(a1-6)]GlcNAc
# In short: (§1)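 Glycan array data came from 3228 arrays in the Consortium for Functional Glycomics database, and only arrays with an available protein sequence were kept. Glycan names were put into IUPAC-condensed notation, and columns mapping to the same glycan were averaged. The binding signal is a within-array Z-score, averaged across arrays of one protein sequence run at different concentrations or buffers and across linkers. A negative Z-score can be read as non-binding.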
# [2] = target: Fuc(a1-2)Gal(b1-4)[Fuc(a1-3)]GlcNAc(b1-2)[Fuc(a1-2)Gal(b1-4)[Fuc(a1-3)]GlcNAc(b1-4)]Man(a1-3)[Fuc(a1-2)Gal(b1-4)[Fuc(a1-3)]GlcNAc(b1-2)Man(a1-6)]Man(b1-4)GlcNAc(b1-4)GlcNAc
# In short: as §1
# [3] = target: Fuc(a1-2)Gal(b1-4)[Fuc(a1-3)]GlcNAc(b1-3)Gal(b1-4)[Fuc(a1-3)]GlcNAc
# In short: as §1
# [4] = target: Fuc(a1-2)Gal(b1-4)[Fuc(a1-3)]GlcNAc(b1-3)Gal(b1-4)[Fuc(a1-3)]GlcNAc(b1-3)Gal(b1-4)[Fuc(a1-3)]GlcNAc
# In short: as §1
# [5] = target: Fuc(a1-2)Gal(b1-4)[Fuc(a1-3)]GlcNAc(b1-3)GalNAc
# In short: as §1
# [6] = target: Fuc(a1-2)Gal(b1-4)[Fuc(a1-3)]GlcNAc(b1-3)[Neu5Ac(a2-6)Gal(b1-4)GlcNAc(b1-6)]Gal(b1-4)Glc
# In short: as §1
# [7] = target: Fuc(a1-2)Gal6S(b1-3)GlcNAc
# In short: as §1
# [8] = target: Fuc(a1-2)Gal6S(b1-3)GlcNAc6S
# In short: as §1
# Fuc(a1-2)Gal6S(b1-4)Glc = target: Fuc(a1-2)Gal6S(b1-4)Glc
# In short: as §1
# [9] = target: Fuc(a1-2)Gal6S(b1-4)Glc6S
# In short: as §1
# [10] = target: Fuc(a1-2)Gal6S(b1-4)GlcNAc
# In short: as §1
# Fuc(a1-2)[Gal(a1-3)]Gal = target: Fuc(a1-2)[Gal(a1-3)]Gal
# In short: as §1
# [11] = target: Fuc(a1-2)[Gal(a1-3)]Gal(b1-3)GalNAc
# In short: as §1
# [12] = target: Fuc(a1-2)[Gal(a1-3)]Gal(b1-3)GlcNAc
# In short: as §1
# [13] = target: Fuc(a1-2)[Gal(a1-3)]Gal(b1-3)GlcNAc(b1-2)Man(a1-3)[Fuc(a1-2)[Gal(a1-3)]Gal(b1-3)GlcNAc(b1-2)Man(a1-6)]Man(b1-4)GlcNAc(b1-4)GlcNAc
# In short: as §1
# [14] = target: Fuc(a1-2)[Gal(a1-3)]Gal(b1-3)GlcNAc(b1-2)Man(a1-3)[Fuc(a1-2)[Gal(a1-3)]Gal(b1-3)GlcNAc(b1-2)Man(a1-6)]Man(b1-4)GlcNAc(b1-4)[Fuc(a1-6)]GlcNAc
# In short: as §1
# [15] = target: Fuc(a1-2)[Gal(a1-3)]Gal(b1-3)GlcNAc(b1-3)GalNAc
# In short: as §1
# [16] = target: Fuc(a1-2)[Gal(a1-3)]Gal(b1-4)Glc
# In short: as §1
# [17] = target: Fuc(a1-2)[Gal(a1-3)]Gal(b1-4)GlcNAc
# In short: as §1
# [18] = target: Fuc(a1-2)[Gal(a1-3)]Gal(b1-4)GlcNAc(b1-2)Man(a1-3)[Fuc(a1-2)[Gal(a1-3)]Gal(b1-4)GlcNAc(b1-2)Man(a1-6)]Man(b1-4)GlcNAc(b1-4)GlcNAc
# In short: as §1
# [19] = target: Fuc(a1-2)[Gal(a1-3)]Gal(b1-4)GlcNAc(b1-2)Man(a1-3)[Fuc(a1-2)[Gal(a1-3)]Gal(b1-4)GlcNAc(b1-2)Man(a1-6)]Man(b1-4)GlcNAc(b1-4)[Fuc(a1-6)]GlcNAc
# In short: as §1
# [20] = target: Fuc(a1-2)[Gal(a1-3)]Gal(b1-4)GlcNAc(b1-3)GalNAc
# In short: as §1
# [21] = target: Fuc(a1-2)[Gal(a1-3)]Gal(b1-4)GlcNAc(b1-6)GalNAc
# In short: as §1
# [22] = target: Fuc(a1-2)[Gal(a1-3)]Gal(b1-4)[Fuc(a1-3)]Glc
# In short: as §1
# [23] = target: Fuc(a1-2)[Gal(a1-3)]Gal(b1-4)[Fuc(a1-3)]GlcNAc
# In short: as §1
# [24] = target: Fuc(a1-2)[Gal(a1-3)]Gal(b1-4)[Fuc(a1-3)]GlcNAc(b1-3)GalNAc
# In short: as §1
# [25] = target: Fuc(a1-2)[Gal(a1-4)]Gal(b1-4)GlcNAc
# In short: as §1
# [26] = target: Fuc(a1-2)[GalNAc(a1-3)]Gal
# In short: as §1
# [27] = target: Fuc(a1-2)[GalNAc(a1-3)]Gal(b1-3)GalNAc(a1-3)[Fuc(a1-2)]Gal(b1-4)GlcNAc
# In short: as §1
# [28] = target: Fuc(a1-2)[GalNAc(a1-3)]Gal(b1-3)GlcNAc
# In short: as §1
# [29] = target: Fuc(a1-2)[GalNAc(a1-3)]Gal(b1-3)GlcNAc(b1-2)Man(a1-3)[Fuc(a1-2)[GalNAc(a1-3)]Gal(b1-3)GlcNAc(b1-2)Man(a1-6)]Man(b1-4)GlcNAc(b1-4)GlcNAc
# In short: as §1
# [30] = target: Fuc(a1-2)[GalNAc(a1-3)]Gal(b1-3)GlcNAc(b1-2)Man(a1-3)[Fuc(a1-2)[GalNAc(a1-3)]Gal(b1-3)GlcNAc(b1-2)Man(a1-6)]Man(b1-4)GlcNAc(b1-4)[Fuc(a1-6)]GlcNAc
# In short: as §1
# [31] = target: Fuc(a1-2)[GalNAc(a1-3)]Gal(b1-3)GlcNAc(b1-3)GalNAc
# In short: as §1
# [32] = target: Fuc(a1-2)[GalNAc(a1-3)]Gal(b1-3)GlcNAc(b1-6)GalNAc
# In short: as §1
# [33] = target: Fuc(a1-2)[GalNAc(a1-3)]Gal(b1-4)Glc
# In short: as §1
# [34] = target: Fuc(a1-2)[GalNAc(a1-3)]Gal(b1-4)GlcNAc
# In short: as §1
# [35] = target: Fuc(a1-2)[GalNAc(a1-3)]Gal(b1-4)GlcNAc(b1-2)Man(a1-3)[Fuc(a1-2)[GalNAc(a1-3)]Gal(b1-4)GlcNAc(b1-2)Man(a1-6)]Man(b1-4)GlcNAc(b1-4)GlcNAc
# In short: as §1
# [36] = target: Fuc(a1-2)[GalNAc(a1-3)]Gal(b1-4)GlcNAc(b1-2)Man(a1-3)[Fuc(a1-2)[GalNAc(a1-3)]Gal(b1-4)GlcNAc(b1-2)Man(a1-6)]Man(b1-4)GlcNAc(b1-4)[Fuc(a1-6)]GlcNAc
# In short: as §1
binder,measurement,setting,value
SalT (Orysata sativa) (protein) MTLVKIGLWGGNGGSAQDISVPPKKLLGVTIYSSDAIRSIAFNYIGVDGQEYAIGPWGGGEGTSTEIKLGSSEHIKEISGTHGPVYDLADIVTYLKIVTSANNTYEAGVPNGKEFSIPLQDSGHVVGFFGRSGTLIDAIGIYVHPILEQKLISEEDLNSAVDHHHHHH,glycan array binding signal (z-score),[1],0.079
same,glycan array binding signal (z-score),[2],-0.302
same,glycan array binding signal (z-score),[3],-0.308
same,glycan array binding signal (z-score),[4],-0.308
same,glycan array binding signal (z-score),[5],-0.295
same,glycan array binding signal (z-score),[6],-0.309
same,glycan array binding signal (z-score),[7],-0.308
same,glycan array binding signal (z-score),[8],-0.296
same,glycan array binding signal (z-score),Fuc(a1-2)Gal6S(b1-4)Glc,-0.307
same,glycan array binding signal (z-score),[9],-0.308
same,glycan array binding signal (z-score),[10],-0.306
same,glycan array binding signal (z-score),Fuc(a1-2)[Gal(a1-3)]Gal,-0.308
same,glycan array binding signal (z-score),[11],-0.305
same,glycan array binding signal (z-score),[12],-0.306
same,glycan array binding signal (z-score),[13],0.274
same,glycan array binding signal (z-score),[14],-0.258
same,glycan array binding signal (z-score),[15],-0.309
same,glycan array binding signal (z-score),[16],-0.308
same,glycan array binding signal (z-score),[17],-0.308
same,glycan array binding signal (z-score),[18],2.39
same,glycan array binding signal (z-score),[19],0.362
same,glycan array binding signal (z-score),[20],-0.305
same,glycan array binding signal (z-score),[21],-0.308
same,glycan array binding signal (z-score),[22],-0.31
same,glycan array binding signal (z-score),[23],-0.307
same,glycan array binding signal (z-score),[24],-0.307
same,glycan array binding signal (z-score),[25],-0.309
same,glycan array binding signal (z-score),[26],-0.307
same,glycan array binding signal (z-score),[27],-0.308
same,glycan array binding signal (z-score),[28],-0.308
same,glycan array binding signal (z-score),[29],0.034
same,glycan array binding signal (z-score),[30],-0.247
same,glycan array binding signal (z-score),[31],-0.301
same,glycan array binding signal (z-score),[32],-0.305
same,glycan array binding signal (z-score),[33],-0.308
same,glycan array binding signal (z-score),[34],-0.307
same,glycan array binding signal (z-score),[35],2.02
same,glycan array binding signal (z-score),[36],0.057
